# Reference: PubChem BioAssay AID485344 (National Center for Advancing Translational Sciences (NCATS), 2010)
# “And” between values parts separate entries of the source, which are not always exact repeats. Equal values may be shown once. About 6,900 (2%) of roughly 340,000 compounds were called active. Rule as the data show it: active = inhibition above about 30%; inactive = below that, where a call was filed. The entries are a selection whose mix differs from that of the whole data set. Where no call is shown, the source filed none.
# Target: D(2) dopamine receptor (Homo sapiens) (UniProt P14416)
# Assay: HTS Assay for Allosteric Antagonists of the Human D2 Dopamine Receptor: Primary Screen for Antagonists; also: 0% is about no effect
# Conditions: HEK293 TREx D2 cells, calcium flux, dopamine EC80; at 10 µM; stronger effect = higher value
# How it was run: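 In this primary screen, negative modulation is detected by tracking calcium flux after an EC80 dopamine challenge in inducible HEK293 T-REx D2 cells preexposed to test compound for 180 s.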
# UniProt P14416, sequence (P14416 whole entry, looked up): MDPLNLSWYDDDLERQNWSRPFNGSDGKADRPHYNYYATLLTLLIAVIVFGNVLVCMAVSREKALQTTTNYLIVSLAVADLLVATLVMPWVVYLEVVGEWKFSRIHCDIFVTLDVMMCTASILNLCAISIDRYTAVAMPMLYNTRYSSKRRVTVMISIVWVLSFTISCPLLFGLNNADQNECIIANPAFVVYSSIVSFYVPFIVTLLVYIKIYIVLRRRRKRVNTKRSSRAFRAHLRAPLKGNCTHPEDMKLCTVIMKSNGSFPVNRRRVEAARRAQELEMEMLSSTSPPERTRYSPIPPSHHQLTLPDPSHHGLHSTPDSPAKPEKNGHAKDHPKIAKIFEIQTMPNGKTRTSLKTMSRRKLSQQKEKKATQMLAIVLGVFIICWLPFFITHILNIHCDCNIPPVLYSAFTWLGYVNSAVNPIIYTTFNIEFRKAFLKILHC
row,SMILES,inhibition
1,Cc1c(Cl)cccc1-n1nnc(-c2nc(-c3ccc4c(c3)OCO4)no2)c1C,-1.38%
2,COc1ccc(C)cc1NS(=O)(=O)c1cc(Br)cc2c1N(C(C)=O)C(C)C2 (stereo unspecified),-4.94%
3,Cc1c(C(=O)N(Cc2cccc(Cl)c2)Cc2ccco2)oc2ccccc12,4.24%
4,Cc1cc(N2CCOCC2)n2nc(C)c(-c3ccc(Cl)cc3)c2n1,active: 33%
5,CC(=O)Nc1ccc(NC(=O)CN2C(=O)CCc3cc(S(=O)(=O)N4CCCCC4)ccc32)cc1,-1.94%
6,O=C(Cn1cc(SCc2ccc(Cl)cc2)c2ccccc21)N1CCCC1,1.74%
7,O=C(Nc1ccc(F)cc1)Nc1nnc(SCC(=O)N2CCCCC2)s1,-18.6%
8,COc1ccc(Cl)cc1S(=O)(=O)N1CCC(c2ccncc2)CC1,-8.51%
9,COc1cccc(/C=C/c2nc3ccccc3c(=O)n2-c2ccc(C)c(C)c2)c1OC,-3.46%
10,Cc1nc(N)c(S(=O)(=O)c2ccccc2)c(Nc2ccc(Br)cc2)n1,5.2%
11,CCOC(=O)Cn1c(=O)c2c(nc(N3CCOCC3)n2C)n(C)c1=O,active: 38.7%
12,O=C(c1cccn1-c1nnc(N2CCCC2)s1)N1CCN(c2ccc(F)cc2)CC1,2.69%
13,Cc1cccc(OCC(=O)NCc2ccc3c(c2)CCN3C(=O)c2ccc(Cl)cc2)c1,-27%
14,CCOc1ccc(NC(=O)c2c(NC(=O)c3ccncc3)sc3c2CCC(C(C)(C)C)C3)cc1 (stereo unspecified),8.36%
15,O=C(NC1CCCC1)c1cc(-c2ccccc2Cl)on1,active: 49.8%
16,CSCCC(NC(=O)c1ccccc1)C(=O)NCCc1ccc2c(c1)OCCO2 (stereo unspecified),active: 65.6%
17,COc1cccc(CNC(=O)CSc2nnc(C)c3c(C)n(-c4ccccc4)nc23)c1,8.05%
18,Cc1ccccc1Nc1c(-c2ccc(O)cc2)nc2c(C)cccn12,22.8%
19,COc1ccc(NC(=O)CCS(=O)(=O)c2cc3c4c(c2)CCN4C(=O)CC3)cc1OC,-4.2%
20,CCC(C(=O)Nc1ccc(F)cc1F)n1nc(-c2ccccc2)c2c(c1=O)CCCC2 (stereo unspecified),4.89%
21,CC1CCN(S(=O)(=O)c2ccc3c(c2)oc(=O)n3CC(=O)N2CCCCC2)CC1,-0.537%

row,SMILES,inhibition
1,Cc1ccccc1CNCCSc1nnnn1C,-12.2%
2,Cc1cccc(C)c1NC(=O)c1nc(SC(C)C)ncc1Cl,13.2%
3,O=C(Nc1ccc(O)c(-c2nc3ccccc3o2)c1)c1ccc(-c2cccc(Cl)c2)o1,7.81%
4,COCCCNC(=O)C1CCN(C(=O)c2ccc(-n3ccc4ccccc43)s2)CC1,-3.85%
5,Cc1cc(C)cc(N(CC(=O)Nc2ccc(C)cc2Cl)S(=O)(=O)c2c(C)[nH]c(=O)[nH]c2=O)c1,-14.2%
6,CCOc1ccccc1NC(=O)Cn1c(=O)n(CCCCC(=O)NCCCOC)c(=O)c2ccccc21,5.81%
7,CC1CCCCC1NC(=O)CCNS(=O)(=O)c1cc(Br)cnc1N (stereo unspecified),active: 32.9%
8,Cc1ccc2[nH]c3c(=O)n(CC(=O)NCCCN4CCN(c5ccc(F)cc5)CC4)ncc3c2c1,-16.6% and active: 62.6%
9,CCc1ccccc1N(C)C(=O)c1cc2c(Cl)nc3ccc(C)cc3c2s1,-6.14%
10,CCc1ccc(NC(=O)Cn2nnc(C(=O)NCCc3ccccc3)c2N)cc1,7.56%
11,O=C(NCc1cccc(F)c1)C1CCN(c2nn3cc(-c4ccc(F)cc4)nc3s2)CC1,3.87%
12,Cc1onc(-c2ccccc2)c1C(=O)NNC(=S)NC(=O)c1ccc(Cl)cc1Cl,active: 30.3%
13,COc1ccc(OC)c(CCNC(=O)c2cc3cccc4c3n2CCS4)c1,10.9%
14,Cc1cc2n(n1)CCCN2C(=O)Nc1ccc(C)c(Cl)c1,1.05%
15,Cc1ccc(C)c(N2CCN(S(=O)(=O)c3ccc(F)c(C(=O)Nc4ccc(Cl)cc4Cl)c3)CC2)c1,0.261%
16,CCN(Cc1ccccc1)C(=O)CCS(=O)(=O)c1cc(Br)cc2c1N(C(=O)C1CC1)CC2,6.56%
17,CN(c1ccccc1)S(=O)(=O)c1nnc(NC(=O)c2cccs2)s1,7.45%
18,CCCSc1ncc(Cl)c(C(=O)Nc2sc3c(c2C(N)=O)CCCC3)n1,-1.11%
19,O=C1C2C3CCC(O3)C2C(=O)N1c1cc(OCC(F)F)cc([N+](=O)[O-])c1 (stereo unspecified),active: 34.8%
20,O=c1c(NCCc2ccc(Cl)cc2)nccn1-c1ccccc1,3.61%
21,COC(=O)c1ccc(-n2nnc(-c3nsc(NC(=O)c4ccc(Cl)cc4)n3)c2C)cc1,25.6%

row,SMILES,inhibition
1,COc1ccccc1NC(=O)CCNS(=O)(=O)c1ccc2c(c1)CCN2C(=O)C1CC1,-4.4%
2,COc1ccc(S(=O)(=O)N(CC(=O)NCCSc2ccccc2)c2ccc(Cl)cc2)cc1,-6.16%
3,O=C(CSc1nccn1Cc1ccc(F)cc1)NCc1ccccc1,7.71%
4,Cc1cccc(OCC(=O)Nc2cccc(C(=O)OCc3cc(=O)n4c(C)csc4n3)c2)c1,14.3%
5,COc1ccc(-n2ncc(C(=O)NCc3ccc4c(c3)OCO4)c2C2CCN(C(=O)OC(C)(C)C)CC2)cc1,11.9%
6,CCc1cccc(N2C(=O)CSC23C(=O)N(Cc2ccccc2F)c2ccccc23)c1 (stereo unspecified),3.12%
7,COc1ccc(-c2cn3nc(SCC(=O)Nc4ccccc4F)ccc3n2)cc1,-1.03%
8,COC(=O)c1scc(-c2ccc(C)cc2)c1S(=O)(=O)Nc1ccc(NC(C)=O)cc1,-1.09%
9,Cc1cc(C)c(NC(=O)COCc2cc(-c3cccs3)on2)c(C)c1,18.3%
10,CCN(CC)CCCNC(=O)C(C)Sc1nc(-c2ccccc2)cc(C(F)(F)F)n1 (stereo unspecified),active: 31.2%
11,Cc1cc(C)cc(OC2CCCCC2NS(=O)(=O)c2ccccc2)c1 (stereo unspecified),active: 36.2%
12,CNS(=O)(=O)c1cn(CC(=O)N2CCN(c3ccc(Cl)cc3)CC2)cc1S(=O)(=O)NC,-4.31%
13,Cc1nc2cccnc2n1C1CCN(C(=O)Nc2ccccc2C(F)(F)F)CC1,18.2%
14,CCOc1ccc(-n2nc(CO)c(C(=O)NCC(c3ccccc3)c3ccccc3)n2)cc1,-12.6%
15,COc1ccc(C(=O)COC(=O)CCCC(=O)Nc2ccc(C(C)=O)cc2)cc1,-9.64%
16,O=C(NCc1ccccc1)c1cccc(N2CCCS2(=O)=O)c1,-3.73%
17,O=c1ccc2cc(S(=O)(=O)NCc3ccc(Cl)cc3)ccc2[nH]1,-4.46%
18,CCN(CC)c1ccc2cc(-c3nc(-c4ccccc4)no3)c(=O)oc2c1,-8.6%
19,Cc1cc(C)c(NC(=O)Cn2nnc(C(=O)NCc3cccs3)c2N)c(C)c1,20%
